The supplement of paper PMC8728848
This is one part of the list.

Key:
Assay in all cases: glycan array binding signal (z-score within array); higher = stronger binding
Conditions in all cases: glycan notation: IUPAC condensed, linker removed
[1] = target: GalNAc(b1-4)GlcNAc
Summary of the method: (§1)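 Columns mapping to the same glycan were averaged after glycan names were converted to IUPAC-condensed notation. The data come from 3228 arrays in the Consortium for Functional Glycomics database, limited to those with an available protein sequence. Binding is reported as a within-array Z-score averaged across arrays of one protein sequence and across linkers.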

[2] = target: GalNAc(b1-4)GlcNAc(b1-2)Man
Summary of the method: as §1

[3] = target: GalNAc(b1-4)GlcNAc(b1-2)Man(a1-3)[GalNAc(b1-4)GlcNAc(b1-2)Man(a1-6)]Man(b1-4)GlcNAc(b1-4)GlcNAc
Summary of the method: as §1

[4] = target: GalNAc(b1-4)GlcNAc(b1-3)GalNAc(b1-4)GlcNAc
Summary of the method: as §1

[5] = target: GalNAc(b1-4)GlcNAc6S
Summary of the method: as §1

[6] = target: GalNAc(b1-6)GalNAc
Summary of the method: as §1

[7] = target: GalNAc3S(b1-4)GlcNAc
Summary of the method: as §1

[8] = target: GalNAc3S(b1-4)GlcNAc3S
Summary of the method: as §1

[9] = target: GalNAc3S(b1-4)[Fuc(a1-3)]GlcNAc
Summary of the method: as §1

[10] = target: GalNAc4S6S(b1-4)GlcNAc
Summary of the method: as §1

[11] = target: GalNAc6S(b1-4)GlcNAc
Summary of the method: as §1

[12] = target: Glc(a1-4)Glc
Summary of the method: as §1

[13] = target: Glc(a1-4)Glc(a1-4)Glc(a1-4)Glc
Summary of the method: as §1

[14] = target: Glc(a1-6)Glc(a1-6)Glc
Summary of the method: as §1

[15] = target: Glc(a1-6)Glc(a1-6)Glc(a1-6)Glc
Summary of the method: as §1

[16] = target: Glc(b1-4)Glc
Summary of the method: as §1

[17] = target: Glc(b1-6)Glc
Summary of the method: as §1

[18] = target: GlcA(b1-3)Gal
Summary of the method: as §1

[19] = target: GlcA(b1-3)GlcNAc
Summary of the method: as §1

[20] = target: GlcA(b1-6)Gal
Summary of the method: as §1

[21] = target: GlcA3S(b1-3)Gal(b1-4)GlcNAc(b1-2)Man
Summary of the method: as §1

[22] = target: GlcA3S(b1-3)Gal(b1-4)GlcNAc(b1-3)Gal(b1-4)Glc
Summary of the method: as §1

[23] = target: GlcNAc(a1-3)Gal(b1-4)GlcNAc
Summary of the method: as §1

[24] = target: GlcNAc(a1-4)Gal(b1-3)GlcNAc
Summary of the method: as §1

[25] = target: GlcNAc(a1-4)Gal(b1-4)GalNAc
Summary of the method: as §1

[26] = target: GlcNAc(a1-4)Gal(b1-4)GlcNAc
Summary of the method: as §1

[27] = target: GlcNAc(a1-4)Gal(b1-4)GlcNAc(b1-3)Gal(b1-4)Glc
Summary of the method: as §1

[28] = target: GlcNAc(a1-4)Gal(b1-4)GlcNAc(b1-3)Gal(b1-4)GlcNAc
Summary of the method: as §1

[29] = target: GlcNAc(a1-4)Gal(b1-4)GlcNAc(b1-3)Gal(b1-4)GlcNAc(b1-3)Gal(b1-4)GlcNAc
Summary of the method: as §1

[30] = target: GlcNAc(a1-4)Gal(b1-4)GlcNAc(b1-3)Gal(b1-4)[Fuc(a1-3)]GlcNAc(b1-3)Gal(b1-4)[Fuc(a1-3)]GlcNAc
Summary of the method: as §1

[31] = target: GlcNAc(a1-6)Gal(b1-4)GlcNAc
Summary of the method: as §1

[32] = target: GlcNAc(b1-2)Gal(b1-3)GalNAc
Summary of the method: as §1

[33] = target: GlcNAc(b1-2)Man(a1-3)[GlcNAc(b1-2)Man(a1-6)]Man(b1-4)GlcNAc(b1-4)GlcNAc
Summary of the method: as §1

[34] = target: GlcNAc(b1-2)Man(a1-3)[GlcNAc(b1-2)Man(a1-6)]Man(b1-4)GlcNAc(b1-4)[Fuc(a1-6)]GlcNAc
Summary of the method: as §1

[35] = target: GlcNAc(b1-2)Man(a1-3)[GlcNAc(b1-4)][GlcNAc(b1-2)Man(a1-6)]Man(b1-4)GlcNAc(b1-4)GlcNAc
Summary of the method: as §1

[36] = target: GlcNAc(b1-2)Man(a1-3)[GlcNAc(b1-4)][GlcNAc(b1-2)Man(a1-6)]Man(b1-4)GlcNAc(b1-4)[Fuc(a1-6)]GlcNAc
Summary of the method: as §1

[37] = target: GlcNAc(b1-2)[GlcNAc(b1-4)]Man(a1-3)[GlcNAc(b1-2)Man(a1-6)]Man(b1-4)GlcNAc(b1-4)GlcNAc
Summary of the method: as §1

[38] = target: GlcNAc(b1-2)[GlcNAc(b1-4)]Man(a1-3)[GlcNAc(b1-4)][GlcNAc(b1-2)Man(a1-6)]Man(b1-4)GlcNAc(b1-4)GlcNAc
Summary of the method: as §1

[39] = target: GlcNAc(b1-2)[GlcNAc(b1-4)]Man(a1-3)[GlcNAc(b1-4)][GlcNAc(b1-2)[GlcNAc(b1-6)]Man(a1-6)]Man(b1-4)GlcNAc(b1-4)GlcNAc
Summary of the method: as §1

[40] = target: GlcNAc(b1-2)[GlcNAc(b1-4)]Man(a1-3)[GlcNAc(b1-4)][GlcNAc(b1-2)[GlcNAc(b1-6)]Man(a1-6)]Man(b1-4)GlcNAc(b1-4)[Fuc(a1-6)]GlcNAc
Summary of the method: as §1

[41] = target: GlcNAc(b1-2)[GlcNAc(b1-6)]Man(a1-6)[GlcNAc(b1-2)Man(a1-3)]Man(b1-4)GlcNAc(b1-4)GlcNAc
Summary of the method: as §1

[42] = target: GlcNAc(b1-2)[GlcNAc(b1-6)]Man(a1-6)[GlcNAc(b1-2)Man(a1-3)]Man(b1-4)GlcNAc(b1-4)[Fuc(a1-6)]GlcNAc
Summary of the method: as §1

[43] = target: GlcNAc(b1-2)[GlcNAc(b1-6)]Man(a1-6)[GlcNAc(b1-4)][GlcNAc(b1-2)Man(a1-3)]Man(b1-4)GlcNAc(b1-4)GlcNAc
Summary of the method: as §1

[44] = target: GlcNAc(b1-3)Fuc
Summary of the method: as §1

[45] = target: GlcNAc(b1-3)Gal
Summary of the method: as §1

B1: DrGal3 (Danio rerio) (protein)
chain: MDLSDALDAPPQQNNQQAGGPVWPGQPANPVWPGQPANPTWPGQPNQPAWPGQPNQQWPGQPGQPTAPGWPGPAPQTGPYGAPGQAPQVLTVPLDFPLQNGAYNKMLITINGEVKPNAKQFTVNLRRGNDIAFHINPRFSEGGKPVIVRNSMIGNNWGREERELPSFPFVPGKPFEMKILITDTEYKVAVNKSHLLEFKHRVFELNQITGLSIYNDVTLSTVNVETLQ
glycan array binding signal (z-score) [1]: 0.313 | glycan array binding signal (z-score) [2]: -0.234 | glycan array binding signal (z-score) [3]: -0.239 | glycan array binding signal (z-score) [4]: -0.231 | glycan array binding signal (z-score) [5]: -0.236 | glycan array binding signal (z-score) [6]: -0.246 | glycan array binding signal (z-score) [7]: -0.263 | glycan array binding signal (z-score) [8]: -0.255 | glycan array binding signal (z-score) [9]: -0.278 | glycan array binding signal (z-score) [10]: -0.226 | glycan array binding signal (z-score) [11]: -0.282 | glycan array binding signal (z-score) [12]: -0.262 | glycan array binding signal (z-score) [13]: -0.281 | glycan array binding signal (z-score) [14]: -0.205 | glycan array binding signal (z-score) [15]: -0.264 | glycan array binding signal (z-score) [16]: -0.253 | glycan array binding signal (z-score) [17]: -0.225 | glycan array binding signal (z-score) [18]: -0.244 | glycan array binding signal (z-score) [19]: -0.23 | glycan array binding signal (z-score) [20]: -0.192 | glycan array binding signal (z-score) [21]: -0.207 | glycan array binding signal (z-score) [22]: -0.163 | glycan array binding signal (z-score) [23]: -0.23 | glycan array binding signal (z-score) [24]: -0.23 | glycan array binding signal (z-score) [25]: -0.206 | glycan array binding signal (z-score) [26]: -0.256 | glycan array binding signal (z-score) [27]: -0.13 | glycan array binding signal (z-score) [28]: 0.329 | glycan array binding signal (z-score) [29]: 1.14 | glycan array binding signal (z-score) [30]: -0.171 | glycan array binding signal (z-score) [31]: -0.297 | glycan array binding signal (z-score) [32]: -0.245 | glycan array binding signal (z-score) [33]: -0.228 | glycan array binding signal (z-score) [34]: -0.229 | glycan array binding signal (z-score) [35]: -0.235 | glycan array binding signal (z-score) [36]: -0.242 | glycan array binding signal (z-score) [37]: -0.252 | glycan array binding signal (z-score) [38]: -0.292 | glycan array binding signal (z-score) [39]: -0.297 | glycan array binding signal (z-score) [40]: -0.281 | glycan array binding signal (z-score) [41]: -0.285 | glycan array binding signal (z-score) [42]: -0.247 | glycan array binding signal (z-score) [43]: -0.243 | glycan array binding signal (z-score) [44]: -0.203 | glycan array binding signal (z-score) [45]: -0.181
